Values joined by “and” are separate entries in the source; they are usually repeats but may differ in a detail not shown here. Equal entries are not always repeated. About 2,200 (0.55%) of roughly 400,000 compounds were called active. Roughly 1% stayed inconclusive and do not appear here. Calls follow the shape of the dose curve; as a rule, active = well fitted inhibition curve with a large enough effect; inconclusive = small, poorly fitted or top-dose-only effect, or another doubt; inactive = no such curve, though single readings can be large or run the other way. The list shows a part of the results, in another mix than the full data.
The molecules below were run against DNA polymerase kappa (Homo sapiens) (UniProt Q9UBT6) (assay: qHTS for Inhibitors of Polymerase Kappa). Conditions: purified Pol kappa, fluorescent DNA synthesis assay, 10 min; series mostly up to 107 µM; activity, negative = inhibition: at the top concentration.
Sequence of UniProt Q9UBT6 (Q9UBT6 whole entry, looked up): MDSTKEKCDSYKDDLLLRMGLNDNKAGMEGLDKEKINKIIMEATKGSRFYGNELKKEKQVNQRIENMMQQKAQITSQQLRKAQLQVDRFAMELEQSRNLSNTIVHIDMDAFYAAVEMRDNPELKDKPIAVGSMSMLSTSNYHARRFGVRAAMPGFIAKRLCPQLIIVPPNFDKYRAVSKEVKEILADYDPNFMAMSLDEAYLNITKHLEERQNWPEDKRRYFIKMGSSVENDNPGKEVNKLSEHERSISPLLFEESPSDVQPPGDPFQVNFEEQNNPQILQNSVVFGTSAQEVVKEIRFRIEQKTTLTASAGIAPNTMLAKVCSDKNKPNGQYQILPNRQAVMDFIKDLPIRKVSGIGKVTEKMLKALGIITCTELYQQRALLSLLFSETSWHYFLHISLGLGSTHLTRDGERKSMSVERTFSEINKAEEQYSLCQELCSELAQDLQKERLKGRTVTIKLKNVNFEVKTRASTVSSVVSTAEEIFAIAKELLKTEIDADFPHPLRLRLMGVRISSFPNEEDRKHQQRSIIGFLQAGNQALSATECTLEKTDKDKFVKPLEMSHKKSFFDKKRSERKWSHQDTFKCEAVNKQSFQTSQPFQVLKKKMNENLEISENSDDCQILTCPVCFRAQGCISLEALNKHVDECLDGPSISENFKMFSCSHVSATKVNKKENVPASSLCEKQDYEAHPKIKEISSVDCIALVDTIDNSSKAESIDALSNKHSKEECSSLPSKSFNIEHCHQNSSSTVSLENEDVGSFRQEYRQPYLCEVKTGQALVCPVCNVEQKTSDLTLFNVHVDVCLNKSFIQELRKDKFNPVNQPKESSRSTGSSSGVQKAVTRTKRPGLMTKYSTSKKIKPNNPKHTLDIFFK
Method in brief: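 Readout: fluorescence, taken kinetically at 0 and 10 min. Conditions: 10 nM Pol kappa, 15 min RT compound preincubation, 50 nM substrate final. Controls: enzyme-free buffer wells.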
% is scaled to controls: 0 for no effect and ±100 for the full control effect; potency is read from the fitted curve at half-maximal effect.

Potency, active:
CCCCCCNC(=O)c1cc(-c2ccco2)nc2ccccc12 50.1 µM
O=[N+]([O-])c1cc(/C=N/Nc2nc3ccccc3[nH]2)c(O)cc1O 39.8 µM
CCN(CC)Cc1cc(O)c(CN(CC)CC)cc1O 8.91 µM
O=C(O)CC(C(=O)O)N1C(=O)/C(=C/c2ccc(-c3nc4ccccc4s3)o2)SC1=S (stereo not drawn) 4.47 µM
O=C(O)c1ccc2c3n(nc2c1)-c1ccc(Cl)cc1CO3 31.6 µM
O=C(NCc1ccco1)c1cc2ccc(O)cc2oc1=O 79.4 µM
Cc1ccc(-c2csc3ncn(CC#N)c(=O)c23)cc1C 79.4 µM
CCOC(=O)c1[nH]c2c(c1C)C(=O)CC(c1ccco1)C2 (stereo not drawn) 56.2 µM
O=c1c(O)cccc2cc(O)c(O)c(O)c12 794 nM and 891 nM
Cc1cc(/C=C2\SC(=S)NC2=O)c(C)n1C 79.4 µM
COc1cc(OC)cc(C(=O)Nc2nnc(NC(=S)Nc3ccccc3)s2)c1 79.4 µM
CC1(C)CC(=O)C2=C(C1)OC(N)=C(C#N)C2c1ccc[nH]1 (stereo not drawn) 79.4 µM
C=CCSC1=N/C(=C\C=C\c2ccco2)C(=O)S1 14.1 µM
FC(F)(F)C1=Nc2cccc3cccc(c23)N1 6.31 µM
Cc1cc(C(=O)COC(=O)c2cc(Cl)c(O)c(Cl)c2)c(C)n1C 79.4 µM

Potency, inactive:
Nc1ccc(S(=O)(=O)Nc2ccc(Cl)nn2)cc1
CN(C)CCC[C@@]1(c2ccc(F)cc2)OCc2cc(C#N)ccc21
OC[C@H]1OC(O)[C@@H](O)[C@@H](O)[C@@H]1O (stereo partly drawn)
NCCS(=O)(=O)O
CCN(CC)CCNC(=O)c1cc(S(C)(=O)=O)ccc1OC
C=CC[C@@H]1/C=C(\C)C[C@H](C)C[C@H](OC)[C@H]2O[C@@](O)(C(=O)C(=O)N3CCCC[C@H]3C(=O)O[C@H](/C(C)=C/[C@@H]3CC[C@@H](O)[C@H](OC)C3)[C@H](C)[C@@H](O)CC1=O)[C@H](C)C[C@@H]2OC
CC(C)NCC(O)COc1ccc(COCCOC(C)C)cc1 (stereo not drawn)

activity, negative = inhibition, inactive:
O=c1ccc(-c2ccccc2)nn1Cc1ccc(F)cc1Cl -1.25%
O=C1CCN(Cc2ccccc2)CCN1CCSc1ccccc1 4.42%
Cc1ccncc1C(=O)O 14.5% [at 60.1 µM]
O=C(C[C@H]1C/C=C\CC[C@H](Cc2ccc(F)cc2)C(=O)O[C@H](c2ccccc2)CNC1=O)N[C@H](CO)Cc1ccccc1 -17.8%
CCCC1OC2C[C@@H]3[C@H]4CCC5=CC(=O)C=C[C@]5(C)[C@H]4C(O)C[C@]3(C)[C@]2(C(=O)CO)O1 (stereo partly drawn) -2.02%
CC(=O)Nc1cc(NC(C)=O)cc(-c2nc3ccccc3[nH]2)c1 2.42%
CCOC(=O)c1c[nH]c2nc(C)ccc2c1=O 7.58%
Nc1nc2[nH]cc(CCc3ccc(C(=O)NC(CCC(=O)O)C(=O)O)cc3)c2c(=O)[nH]1 (stereo not drawn) 0.451% [at 19.4 µM]
CCN(CC)Cc1cc2[nH]c3c4ccc(Cl)cc4ncc3c2cc1OC -20.2%
Nc1nc(=S)c2ncn([C@H]3O[C@@H](CO)[C@@H](O)[C@@H]3O)c2[nH]1 -8.45% [at 12 µM]
CC1CCc2nc3ccc(S(=O)(=O)N4CCC(C(=O)NCc5ccccc5Cl)CC4)cc3c(C(=O)O)c2C1 (stereo not drawn) -39.4%
CC1=C(\C=C/C(C)=C/C=C\C(C)=C\C(=O)O)C(C)(C)CCC1 -6.52% [at 12 µM] [middle of 5 runs]
CCc1cccc(NS(=O)(=O)c2c(C)[nH]c(=O)[nH]c2=O)c1 -4.55% [at 60.1 µM]
OCCCc1ccccc1 16.2% [at 60.1 µM]
COc1ccc(Cl)cc1C(=O)Nn1cnc2ccccc2c1=O -1.62%
CN(C)C(=O)NC1CCCCCCC1 11.6% [at 60.1 µM]
OC[C@@H]1OC(O)[C@@H](O)[C@H](O)[C@H]1O (stereo partly drawn) 15.4% [at 60.1 µM]
CCOC(=O)[C@@H]1[C@H]2COc3cc(OC)ccc3[C@H]2N2C(=O)N(c3cccc(F)c3)C(=O)[C@@]12C -8.54%
O=C(/C=C/c1ccc(Br)cc1)c1ccc(NC(=O)c2ccco2)cc1 -6.27%
O=C1OCCN1C(=O)[C@H]1[C@H](c2ccc(Cl)cc2)C(c2cccc(Cl)c2)=NN1c1ccccc1 -14%
CC(C)NC[C@@H](O)COc1ccc(COCCOC(C)C)cc1 -8.42% [at 12 µM] and -5.51% [at 19.4 µM]
CC[C@@H](C)[C@H]1O[C@]2(CC[C@H]1C)C[C@@H]1C[C@@H](CC=C(C)[C@@H](O[C@H]3C[C@H](OC)[C@@H](O[C@H]4C[C@H](OC)[C@@H](O)[C@H](C)O4)[C@H](C)O3)[C@@H](C)C=CC=C3CO[C@@H]4[C@H](O)C(C)=C[C@@H](C(=O)O1)[C@]34O)O2 -12.9% [at 60.1 µM]
CN(C)c1ccc(O)c2c1C[C@H]1C[C@H]3[C@@H](N(C)C)C(=O)C(C(N)=O)=C(O)[C@]3(O)C(=O)C1=C2O -4.16% [at 12 µM]
CCC(=O)OCC(=O)C1(OC(=O)CC)[C@H](C)C[C@H]2[C@H]3[C@H]([C@@H](O)C[C@@]21C)[C@@]1(C)C=CC(=O)C=C1C[C@H]3Cl (stereo partly drawn) -19.6%
O=C1ON=C(c2ccccc2)/C1=C\c1ccco1 -18.6%
O=C(C[C@H]1C/C=C\CC[C@@H](Cc2ccc(F)cc2)C(=O)O[C@H](c2ccccc2)CNC1=O)N[C@H](CO)Cc1ccccc1 -4.87%
CN1CCCC1CCOC(C)(c1ccccc1)c1ccc(Cl)cc1 (stereo not drawn) -5.89%
CCOc1[nH]c(/N=C/c2ccco2)c(C#N)c1C#N -9.88%
CC(C)C[C@H](NC(=O)[C@@H](Cc1c[nH]c2ccccc12)NC(=O)[C@H](Cc1ccc(O)cc1)NC(=O)[C@H](CO)NC(=O)[C@H](Cc1c[nH]c2ccccc12)NC(=O)[C@H](Cc1cnc[nH]1)NC(=O)[C@@H]1CCC(=O)N1)C(=O)N[C@@H](CCCN=C(N)N)C(=O)N1CCC[C@H]1C(=O)NCC(N)=O 14.1% [at 60.1 µM]
Nc1nc(=S)c2ncn([C@@H]3O[C@H](CO)[C@@H](O)[C@H]3O)c2[nH]1 7.55%
Cc1ccc(S(=O)(=O)N2CCC(=O)N(C(COCc3ccc(C(F)(F)F)cc3)Cc3ccccc3)CC2)cc1 (stereo not drawn) -7.13%

From PubChem BioAssay AID588579 (National Center for Advancing Translational Sciences (NCATS), 2011)
